In patent publication US11178870B2 (priority 2017, dated 2021):

Assays:
[1] = test system: Magnaporthe grisea; assay type: in vivo; settings: Table 7, Test A
[2] = test system: Phytophthora infestans; assay type: in vivo; settings: Table 7, Test F
[3] = test system: Colletotrichum orbiculare; settings: 250 ppm sprayed (2.5 ml/pot) before inoculation; assessed 6 to 10 days after inoculation

| Compound | control value, Test A (blast on rice) [1] | control value, Test F (late blight on tomato) [2] | control value, Test H (anthracnose on cucumber) [3] |
| --- | --- | --- | --- |
| Cc1cnn(-c2cc(Br)c(=O)n(CC(F)F)c2-c2c(F)cccc2F)c1Cl [Compound 193] | H (H shows the control value more than 50%) | L (L shows the control value of 50% or less) | H (H shows the control value more than 50%) |
| Cc1cnn(-c2ccc(=O)n(CC(F)F)c2-c2ccccc2C)c1 [Compound 303] | L (L shows the control value of 50% or less) | L (L shows the control value of 50% or less) | L (L shows the control value of 50% or less) |
| COc1ccc(-c2c(-n3cc(Cl)cn3)cc(Cl)c(=O)n2CC(F)F)c(F)c1 [Compound 213] | H (H shows the control value more than 50%) | L (L shows the control value of 50% or less) | H (H shows the control value more than 50%) |
| Cc1cnn(-c2cc(Br)c(=O)n(CC(F)F)c2-c2ccccc2F)c1Cl [Compound 312] | H (H shows the control value more than 50%) | L (L shows the control value of 50% or less) | H (H shows the control value more than 50%) |
| O=c1ccc(-c2ccsc2Br)c(-c2c(F)cccc2F)n1CC(F)F [Compound 323] | H (H shows the control value more than 50%) | – | – |
| CCn1c(-c2c(F)cccc2Br)c(-n2cc(Cl)cn2)cc(Cl)c1=O [Compound 218] | H (H shows the control value more than 50%) | L (L shows the control value of 50% or less) | L (L shows the control value of 50% or less) |
| CCn1c(-c2ccccc2F)c(-n2ncc(C)c2Cl)cc(Br)c1=O [Compound 264] | H (H shows the control value more than 50%) | L (L shows the control value of 50% or less) | H (H shows the control value more than 50%) |
| O=c1c(Br)cc(-n2cc(Cl)cn2)c(-c2ccccc2F)n1CC(F)F [Compound 278] | H (H shows the control value more than 50%) | L (L shows the control value of 50% or less) | L (L shows the control value of 50% or less) |
| Cc1cnn(-c2cc(Br)c(=O)n(CC(F)F)c2-c2ccccc2Cl)c1Cl [Compound 230] | H (H shows the control value more than 50%) | L (L shows the control value of 50% or less) | H (H shows the control value more than 50%) |
| CCn1c(-c2ccc(OC)cc2F)c(-n2cc(F)cn2)cc(Cl)c1=O [Compound 301] | H (H shows the control value more than 50%) | L (L shows the control value of 50% or less) | H (H shows the control value more than 50%) |
| C#Cc1cc(-n2cc(Cl)cn2)c(-c2c(F)cc(OC)cc2F)n(CC)c1=O [Compound 224] | L (L shows the control value of 50% or less) | L (L shows the control value of 50% or less) | H (H shows the control value more than 50%) |
| CCn1c(-c2ccccc2[N+](=O)[O-])c(-n2cc(Cl)cn2)cc(Br)c1=O [Compound 257] | L (L shows the control value of 50% or less) | L (L shows the control value of 50% or less) | H (H shows the control value more than 50%) |
| CCOc1cc(F)c(-c2c(-n3cc(F)cn3)ccc(=O)n2CC)c(F)c1 [Compound 311] | H (H shows the control value more than 50%) | L (L shows the control value of 50% or less) | H (H shows the control value more than 50%) |
| CCn1c(-c2c(F)cccc2F)c(-c2cc(Cl)sc2Cl)cc(Cl)c1=O [Compound 297] | L (L shows the control value of 50% or less) | L (L shows the control value of 50% or less) | L (L shows the control value of 50% or less) |
| CCn1c(-c2ccc(F)cc2F)c(-n2cc(F)cn2)ccc1=O [Compound 250] | H (H shows the control value more than 50%) | L (L shows the control value of 50% or less) | H (H shows the control value more than 50%) |
| COc1ccc(-c2c(-n3cc(Cl)cn3)cc(Br)c(=O)n2CC(F)F)c(F)c1 [Compound 215] | H (H shows the control value more than 50%) | H (H shows the control value more than 50%) | H (H shows the control value more than 50%) |
